# This is one part of the list.
# Test system: HSkMC (human skeletal muscle cells)
# Test: cytotoxicity call (relative viability < 0.9)
# Details: 10 µM
row,SMILES,cytotoxicity call
1,CC(=O)N1CSC[C@H]1C(=O)O,inactive
2,CO[C@@H](CN(C)C(=O)c1ccc2c(c1)OCO2)[C@@H](C)CN([C@H](C)CO)S(=O)(=O)c1ccc(F)cc1,inactive
3,O=C(C[C@H]1C[C@H]2c3cc(NC(=O)Cc4ccncc4)ccc3O[C@H]2[C@H](CO)O1)NCc1cc(F)ccc1F,inactive
4,C[C@@H]1CN([C@@H](C)CO)C(=O)CCCn2cc(nn2)CO[C@H]1CN(C)C(=O)Nc1ccnc(N2CCOCC2)c1,inactive
5,C[C@@H]1CN([C@@H](C)CO)C(=O)c2cccc(NC(=O)Nc3ccc(F)cc3)c2O[C@H]1CN(C)Cc1ccc(C(=O)Nc2ccccc2N)cc1,inactive
6,Cc1ccc(S(=O)(=O)Nc2ccc3c(c2)C(=O)N([C@@H](C)CO)C[C@H](C)[C@@H](CN(C)Cc2ccncc2)OCCCC[C@@H](C)O3)cc1,inactive
7,Cc1ccc(S(=O)(=O)N(C)C[C@H]2Oc3ccc(NC(=O)NC(C)C)cc3CC(=O)N([C@@H](C)CO)C[C@H]2C)cc1,inactive
8,CC(O)CN(CCN(CC(C)O)CC(C)O)CC(C)O (stereo not drawn),inactive
9,C[C@H](CO)N1C[C@H](C)[C@@H](CN(C)C(=O)Nc2ccc3c(c2)OCO3)Oc2ccc(NC(=O)Nc3cccc4ccccc34)cc2CC1=O,inactive
10,COc1ccc(CNS(=O)(=O)N(C)C)cc1,inactive
11,CC=Cc1ccc(OC)cc1,inactive
12,Cc1noc(C)c1NC(=O)N(C)C[C@@H]1Oc2ccc(NS(=O)(=O)c3c(C)noc3C)cc2C(=O)N([C@H](C)CO)C[C@H]1C,inactive
13,C[C@H](CO)N1C[C@H](C)[C@H](CN(C)S(C)(=O)=O)Oc2ccc(NC(=O)Nc3ccc4c(c3)OCO4)cc2C1=O,inactive

# From the antibiotic and cytotoxicity screens of Wong et al. (2023)
